Six molecules from publication PMC6705773 can be followed below.

The target of assay [1] is T1, FtsX (B. subtilis (endogenous in PY79)) (UniProt O34876).
T1 sequence: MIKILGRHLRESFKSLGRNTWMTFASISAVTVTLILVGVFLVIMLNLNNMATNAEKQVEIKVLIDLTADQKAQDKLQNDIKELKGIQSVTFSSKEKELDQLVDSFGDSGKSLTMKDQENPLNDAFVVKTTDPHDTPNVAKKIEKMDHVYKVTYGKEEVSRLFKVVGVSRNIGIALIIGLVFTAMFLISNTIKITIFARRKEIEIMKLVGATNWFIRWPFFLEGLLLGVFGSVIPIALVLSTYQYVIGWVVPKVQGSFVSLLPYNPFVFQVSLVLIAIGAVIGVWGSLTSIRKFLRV
As to the kind of experiment: co-IP; anti-FtsX antiserum and Protein A Sepharose on 0.5% digitonin-solubilized membrane fractions of exponentially growing B. subtilis wild type (PY79), ΔftsX mutant as control; 4°C; Buffer S (20 mM Hepes pH 8, 200 mM NaCl, 1 mM DTT, 20% glycerol) + 0.5% digitonin; immunoblot.

In assay [2] the target is T2, full-length SweD fused to the T18 or T25 domain of Bordetella adenylate cyclase (B. subtilis) (UniProt O32022).
T2 sequence: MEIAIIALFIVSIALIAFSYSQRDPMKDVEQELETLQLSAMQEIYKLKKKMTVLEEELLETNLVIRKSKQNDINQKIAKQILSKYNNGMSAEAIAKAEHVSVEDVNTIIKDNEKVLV
As to the kind of experiment: two-hybrid; bacterial adenylate cyclase two-hybrid (BACTH); T18 and T25 fusions co-transformed into E. coli BTH101; spotted on LB agar with IPTG (0.25 mM) and X-Gal, 30°C, 16 hours.

In assay [3] the target is T3, FtsX fused to the T18 or T25 domain of Bordetella adenylate cyclase (B. subtilis) (UniProt O34876).
T3 sequence: T1 sequence
Described as above.

No constants are given. Whether binding was seen depends on the method and setting. For some of these results: Binding seen in cells or lysates may run through a third protein. Some binding calls cover weakened binding; strength is not graded here. For some of these results: Where a sequence is shown, tags or fusion partners need not be part of it.

B1: SweD (protein, UniProt O32022 1-117)
chain: T2 sequence
On to B1, for which the binding result in assay [1] was “binds”.

B2: full-length SweD fused to the T18 or T25 domain of Bordetella adenylate cyclase (protein, UniProt O32022 1-117)
chain: T2 sequence
On to B2, for which the binding entry in assay [2] and in assay [3] was “binds” in each case.

B3: SweC fused to the T18 or T25 domain of Bordetella adenylate cyclase (protein, UniProt O32023 1-154)
chain: MTKRGIQAFAGGIILATAVLAAVFYLTDEDQAAAVKDNKTVTEQDVNNYLDSKKLVSVNRDEYQKLLDSKEKSLNNDSGSDTKSDKVKTYKLTIKDGMSTADVSAILEKEGIISSAQDFNDYVIDAGYHKEIRAGEFKVKSDMSFKKIVKTLTR
With B3, in assay [2], the binding entry is “no binding”.

B4: Mbl, bacterial two-hybrid fusion (protein, UniProt P39751 1-333)
chain: MFARDIGIDLGTANVLIHVKGKGIVLNEPSVVALDKNSGKVLAVGEEARRMVGRTPGNIVAIRPLKDGVIADFEVTEAMLKHFINKLNVKGLFSKPRMLICCPTNITSVEQKAIKEAAEKSGGKHVYLEEEPKVAAIGAGMEIFQPSGNMVVDIGGGTTDIAVISMGDIVTSSSIKMAGDKFDMEILNYIKREYKLLIGERTAEDIKIKVATVFPDARHEEISIRGRDMVSGLPRTITVNSKEVEEALRESVAVIVQAAKQVLERTPPELSADIIDRGVIITGGGALLNGLDQLLAEELKVPVLVAENPMDCVAIGTGVMLDNMDKLPKRKLS
With B4, in assay [2], the binding entry was “no binding”.

B5: FtsE fused to the T18 or T25 domain of Bordetella adenylate cyclase (protein, UniProt O34814 1-228)
chain: MIEMKEVYKAYPNGVKALNGISVTIHPGEFVYVVGPSGAGKSTFIKMIYREEKPTKGQILINHKDLATIKEKEIPFVRRKIGVVFQDFKLLPKLTVFENVAFALEVIGEQPSVIKKRVLEVLDLVQLKHKARQFPDQLSGGEQQRVSIARSIVNNPDVVIADEPTGNLDPDTSWEVMKTLEEINNRGTTVVMATHNKEIVNTMKKRVIAIEDGIIVRDESRGEYGSYD
Consider B5, for which the binding result in assay [3] is “binds”.

B6: WalI (YycI) (protein, UniProt Q45612 1-280)
chain: MEWNKTKSIFIVAFLILDIFLGYQFFQKWQATGKEYEVIKNDVEHDMKADHITYEGLNKEATEGYRITANQKSFSKEEIEALKDQKPLMDMPSDDHKVTSLKMKFANPIALSKKDIEDDAQALVSSKIQDGEKYKLWKVDKSKKEIIFFQTYEGHYIYQKTDNPSNMIGQVVLHLNGKNEVVSYDQTTLETFKQIQKESLITEMDAVELLYYQNQLKEYSTVKSCKFGYVAQYPLTSTQVLAPVWRITVEYEKKVNGEKKTVQEYFTVNALESTILDTDQ
On to B6, for which, in assay [1], the binding entry is reported as “no binding”.
